The list shows a part of the results. Many values rest on one well or one pass, so single values are uncertain.
What was measured:
Experiment in all cases: cell count relative to DMSO control; melanoma cells; higher = more viable cells
Settings in all cases: library dose: low library concentration; 72 h
MZ2-MEL = tested on: MZ2-MEL
MeWo = tested on: MeWo
RPMI7951 = tested on: RPMI7951
RVH-421 = tested on: RVH-421
SkMel28 = tested on: SkMel28
SkMel30 = tested on: SkMel30
SkMel5 = tested on: SkMel5
UACC257 = tested on: UACC257
UACC62 = tested on: UACC62
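Further: cell number obtained by counting DAPI-stained nuclei in high-throughput microscope images with image analysis software, screen run in 1,536-well plates.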

Compound	cell count (MZ2-MEL) [%]	cell count (MeWo) [%]	cell count (RPMI7951) [%]	cell count (RVH-421) [%]	cell count (SkMel28) [%]	cell count (SkMel30) [%]	cell count (SkMel5) [%]	cell count (UACC257) [%]	cell count (UACC62) [%]
C/C(O)=C(\C#N)C(=O)Nc1cc(Br)ccc1Br + Oc1nc(-c2ccc(C(F)(F)F)cc2)nc2c1CSCC2 [XAV939] (first compound 2 µM, partner dose 2 µM)	92	97.3	89.4	90.9	81	112	75.1	91.7	88.9
CC(C)(C)c1cnc(CSc2cnc(NC(=O)C3CCNCC3)s2)o1 + Cc1cc(SCc2sc(-c3ccc(C(F)(F)F)c(F)c3)nc2C)ccc1OCC(=O)O [GW0742] (first compound 0.01 µM, partner dose 2 µM)	102	100	87	107	91.6	124	103	86.2	90.1
NC(=O)Nc1cc(-c2cccc(F)c2)sc1C(=O)N[C@H]1CCCNC1 + C/C(O)=C(\C#N)C(=O)Nc1cc(Br)ccc1Br [LFM-A13] (first compound 0.02 µM, partner dose 2 µM)	96.1	92.8	94.5	107	96.9	113	109	84.2	101
CC(C)(C)c1cnc(CSc2cnc(NC(=O)C3CCNCC3)s2)o1 + C/C(O)=C(\C#N)C(=O)Nc1cc(Br)ccc1Br [LFM-A13] (first compound 0.01 µM, partner dose 2 µM)	97.2	96.1	87.5	108	87.2	101	90.2	83	89.8
Cn1nnc2c(C(N)=O)ncn2c1=O [temozolomide] + Cc1cc(SCc2sc(-c3ccc(C(F)(F)F)c(F)c3)nc2C)ccc1OCC(=O)O [GW0742] (first compound 2 µM, partner dose 2 µM)	87.8	93.6	91.2	132	72.1	82.6	94.1	97.2	85.5
NCC(=O)Nc1ccc(-n2nc(C(F)(F)F)cc2-c2ccc3c(ccc4ccccc43)c2)cc1 + C/C(O)=C(\C#N)C(=O)Nc1cc(Br)ccc1Br [LFM-A13] (first compound 1 µM, partner dose 2 µM)	85.7	52.7	109	114	62.3	54	78.2	96.2	80.7
C[C@]1(c2nc3c(C(N)=O)cccc3[nH]2)CCCN1 [Veliparib] + C/C(O)=C(\C#N)C(=O)Nc1cc(Br)ccc1Br [LFM-A13] (first compound 1.4 µM, partner dose 2 µM)	103	88	110	94.7	77.5	96.7	90.8	87.7	70.9
N#Cc1c(O)c2c(-c3ccc(-c4ccccc4O)cc3)csc2[nH]c1=O + O=C(Oc1ccc([N+](=O)[O-])cc1)N1CCC(C(O)(c2ccc3c(c2)OCO3)c2ccc3c(c2)OCO3)CC1 [JZL184] (first compound 2 µM, partner dose 1 µM)	102	117	113	101	101	97.2	99.3	75.7	102
C/C(O)=C(\C#N)C(=O)Nc1cc(Br)ccc1Br + O=C(Oc1ccc([N+](=O)[O-])cc1)N1CCC(C(O)(c2ccc3c(c2)OCO3)c2ccc3c(c2)OCO3)CC1 [JZL184] (first compound 2 µM, partner dose 1 µM)	95.2	97.5	92.6	89.5	87.9	111	84	91.8	84.8
CO[C@@H]1[C@H](N(C)C(=O)c2ccccc2)C[C@H]2O[C@]1(C)n1c3ccccc3c3c4c(c5c6ccccc6n2c5c31)C(=O)NC4 [Midostaurin] + Cc1cc(SCc2sc(-c3ccc(C(F)(F)F)c(F)c3)nc2C)ccc1OCC(=O)O [GW0742] (first compound 0.08 µM, partner dose 2 µM)	97.6	83.5	82.7	103	91.8	106	77.3	71	94.7
O=C(Nc1ccccc1)c1cc([N+](=O)[O-])ccc1Cl + O=C(Oc1ccc([N+](=O)[O-])cc1)N1CCC(C(O)(c2ccc3c(c2)OCO3)c2ccc3c(c2)OCO3)CC1 [JZL184] (first compound 2 µM, partner dose 1 µM)	97.8	106	96.8	111	78.3	95.3	93.7	106	86.4
O=S(=O)(c1ccccc1)N(CC(F)(F)F)c1ccc(C(O)(C(F)(F)F)C(F)(F)F)cc1 + C/C(O)=C(\C#N)C(=O)Nc1cc(Br)ccc1Br [LFM-A13] (first compound 1.4 µM, partner dose 2 µM)	97.8	92.7	99.3	88.2	94.2	91.7	91.2	84.4	81.5
Cc1cc(SCc2sc(-c3ccc(C(F)(F)F)c(F)c3)nc2C)ccc1OCC(=O)O + O=C(Oc1ccc([N+](=O)[O-])cc1)N1CCC(C(O)(c2ccc3c(c2)OCO3)c2ccc3c(c2)OCO3)CC1 [JZL184] (first compound 2 µM, partner dose 1 µM)	98.9	86.8	99	103	89	90.6	86.5	90.5	88.3
Nc1cccc2c1CN(C1CCC(=O)NC1=O)C2=O (configuration not stated) [lenalidomide] + Cc1cc(SCc2sc(-c3ccc(C(F)(F)F)c(F)c3)nc2C)ccc1OCC(=O)O [GW0742] (first compound 1 µM, partner dose 2 µM)	101	100	102	102	96.5	99.9	99.8	96.1	110
C/C(O)=C(\C#N)C(=O)Nc1cc(Br)ccc1Br + COc1cc(N2CCC(N3CCN(C)CC3)CC2)ccc1Nc1ncc(Cl)c(Nc2ccccc2S(=O)(=O)C(C)C)n1 [NVP-TAE684] (first compound 2 µM, partner dose 0.08 µM)	95	79.2	77.7	106	83	83.3	70.3	78.7	88
Cc1ccc(NC(=O)c2cccc(N(C)C)c2)cc1NC(=O)c1ccc(O)cc1 + C/C(O)=C(\C#N)C(=O)Nc1cc(Br)ccc1Br [LFM-A13] (first compound 2 µM, partner dose 2 µM)	77.9	97.8	96.5	91.3	90.5	101	93	87.5	89.6
C/C(O)=C(\C#N)C(=O)Nc1cc(Br)ccc1Br + CCCCCCCCCCCC1=C(O)C(=O)C=C(O)C1=O [Embelin] (first compound 2 µM, partner dose 1.2 µM)	98.8	109	101	91.8	88.4	104	91.8	89	106
Cc1cc(N2CCOCC2)cc2[nH]c(-c3c(NC[C@@H](O)c4cccc(Cl)c4)cc[nH]c3=O)nc12 + O=C(Oc1ccc([N+](=O)[O-])cc1)N1CCC(C(O)(c2ccc3c(c2)OCO3)c2ccc3c(c2)OCO3)CC1 [JZL184] (first compound 0.2 µM, partner dose 1 µM)	98.2	87.7	102	89.3	84.7	97.3	82.5	80.5	88.1
Cc1cc(SCc2sc(-c3ccc(C(F)(F)F)c(F)c3)nc2C)ccc1OCC(=O)O + C/C(O)=C(\C#N)C(=O)Nc1cc(Br)ccc1Br [LFM-A13] (first compound 2 µM, partner dose 2 µM)	96.1	112	74.9	116	97.6	101	107	102	92
CN(C)S(=O)(=O)c1ccc2c(c1)/C(=C/c1cc3c([nH]1)CCCC3)C(=O)N2 + O=C(Oc1ccc([N+](=O)[O-])cc1)N1CCC(C(O)(c2ccc3c(c2)OCO3)c2ccc3c(c2)OCO3)CC1 [JZL184] (first compound 0.4 µM, partner dose 1 µM)	98.1	86.7	95.6	98.1	97.7	90.8	97.1	91.8	90.2
NCC(=O)Nc1ccc(-n2nc(C(F)(F)F)cc2-c2ccc3c(ccc4ccccc43)c2)cc1 + O=C(Oc1ccc([N+](=O)[O-])cc1)N1CCC(C(O)(c2ccc3c(c2)OCO3)c2ccc3c(c2)OCO3)CC1 [JZL184] (first compound 1 µM, partner dose 1 µM)	106	73.1	124	85	84.2	68.4	99.8	129	120
COc1ccc(-c2ccc3c(N4CCOCC4)nc(N4C[C@@H](C)O[C@@H](C)C4)nc3n2)cc1CO + Cc1cc(SCc2sc(-c3ccc(C(F)(F)F)c(F)c3)nc2C)ccc1OCC(=O)O [GW0742] (first compound 0.02 µM, partner dose 2 µM)	95.9	96.2	94	93.7	87.7	80.6	102	96.4	107
NC(=O)Nc1cc(-c2cccc(F)c2)sc1C(=O)N[C@H]1CCCNC1 + O=C(Oc1ccc([N+](=O)[O-])cc1)N1CCC(C(O)(c2ccc3c(c2)OCO3)c2ccc3c(c2)OCO3)CC1 [JZL184] (first compound 0.02 µM, partner dose 1 µM)	99.2	90.5	98.8	119	93.5	93.3	94.4	95.7	109
